Data reported in the RNAGym collection of RNA variant scans (doi:10.1073/pnas.2313332121).
Variants at the background level are over-represented here.

B1: TPR 5TU (parent)
chain: GGAUCUUCUCGAUCUAACAAAAAAGACAAAUCUGCCACAAAGCUUGAGAGCAUCUUCGGAUGCAGAGGCGGCAGCCUUCGGUGGCGCGAUAGCGCCAACGUUCUCAACUAUGACACGCAAAACGCGUGCUCCGUUGAAUGGAGUUUAUCAUG

Variants of: B1
Assay: polymerase ribozyme fitness, log enrichment relative to wild type (log ratio); higher = more active; in vitro selection for triplet polymerase activity
Method in brief: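 One round of in vitro selection, in triplicate, was applied to PCR-built, transcribed mutant libraries of each subunit of a heterodimeric triplet polymerase ribozyme. The steps were annealing with a biotinylated primer, partner subunit and triplets, incubation frozen at −7 °C, gel excision of extended constructs, streptavidin-bead capture and RT-PCR. Fitness is the logarithm, base 2, of genotype enrichment over wild-type enrichment from inverse-variance-weighted replicate averages of Illumina-sequenced inputs and outputs, keeping genotypes with ≥10 input reads and ≥1 read per output.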

First: A12U G94A
Second: A12U U13G A49C A106G
The “polymerase ribozyme fitness (log ratio)” value of the first is higher: -1.47 for the first, at most -4.2 for the second.

Going from A12U U53A C116G A119U G124A A142C to A12U U56A, the “polymerase ribozyme fitness (log ratio)” value rises from at most -4.2 to -0.683.

First: A12U U56C G83C C85G C87A C108U U111G A150G
Second: A12U U56G A91G
The “polymerase ribozyme fitness (log ratio)” value of the first is lower: at most -4.2 for the first, -2.61 for the second.

Compared with A12U U61G C93U G94A U144G, A12U U77G G83U G88U A106C is lower in “polymerase ribozyme fitness (log ratio)” value: -2.83 for the first, at most -4.2 for the second.

A12U U82C G86C and A12U U90G G100A A107U cannot be ordered by “polymerase ribozyme fitness (log ratio)” value: at most -4.2 for the first, at most -4.2 for the second.

U13A A16U G59A A91G C125G U130A and U13A A17C A49U G50A G74A U130G cannot be ordered by “polymerase ribozyme fitness (log ratio)” value: at most -4.2 for the first, at most -4.2 for the second.

U13A A17U C18U A24G A28U U33G C85U U127A and U13A A17U C76A G84A U111A A119U A138G cannot be ordered by “polymerase ribozyme fitness (log ratio)” value: at most -4.2 for the first, at most -4.2 for the second.

U13A A20G G74A C76A G84A A115G C125A and U13A A20U U77A cannot be ordered by “polymerase ribozyme fitness (log ratio)” value: at most -4.2 for the first, at most -4.2 for the second.

U13A A21C G92A G100C and U13A A21U G46U G48C C54U C79U G92A G100U C103G G133A U151G cannot be ordered by “polymerase ribozyme fitness (log ratio)” value: at most -4.2 for the first, at most -4.2 for the second.

U13A A22C A23U A52G C116U A120C and U13A A24G U53C U55A U56A A91U U111C C123U C131A C132U cannot be ordered by “polymerase ribozyme fitness (log ratio)” value: at most -4.2 for the first, at most -4.2 for the second.

U13A A29U A39U U53G C85A G126C C132G U135C and U13A A41C A91U C96U cannot be ordered by “polymerase ribozyme fitness (log ratio)” value: at most -4.2 for the first, at most -4.2 for the second.

First: U13A A52G G68C G80A U82G C95G C105U C114A U145G
Second: U13A C14A A60G C93U
The “polymerase ribozyme fitness (log ratio)” value of the first is lower: at most -4.2 for the first, -2.5 for the second.

U13A C14G A19U U53A U55A G86C U135A and U13A C27A C54A U56A G65C G92C A97G U101G G140U cannot be ordered by “polymerase ribozyme fitness (log ratio)” value: at most -4.2 for the first, at most -4.2 for the second.

Compared with U13A C35U U53A G84C C99G G133C, U13A C38U is higher in “polymerase ribozyme fitness (log ratio)” value: at most -4.2 for the first, -0.321 for the second.

U13A C43A C95U and U13A C51U C54A G86U C116U A120G cannot be ordered by “polymerase ribozyme fitness (log ratio)” value: at most -4.2 for the first, at most -4.2 for the second.

U13A C76A U148G and U13A C76G C95U A97U U145G A150C cannot be ordered by “polymerase ribozyme fitness (log ratio)” value: at most -4.2 for the first, at most -4.2 for the second.

U13A G34U A49C G140A A142U and U13A G34U G94A U102G cannot be ordered by “polymerase ribozyme fitness (log ratio)” value: at most -4.2 for the first, at most -4.2 for the second.

U13A G42A C57G G62A G67U and U13A G42A C72U C79G A142C cannot be ordered by “polymerase ribozyme fitness (log ratio)” value: at most -4.2 for the first, at most -4.2 for the second.

Compared with U13A G58A U77C A107G A113U U127A A138C, U13A G84A G136U is higher in “polymerase ribozyme fitness (log ratio)” value: at most -4.2 for the first, -2.59 for the second.

U13A G94A U102G and U13A U33A A52U A89G cannot be ordered by “polymerase ribozyme fitness (log ratio)” value: at most -4.2 for the first, at most -4.2 for the second.

First: U13A U55A A89C G128U
Second: U13A U55G C85U A121G
The “polymerase ribozyme fitness (log ratio)” value of the first is lower: -3.92 for the first, -1.11 for the second.

First: U13A U61A C85U
Second: U13A U135A
The “polymerase ribozyme fitness (log ratio)” value of the first is lower: -2.01 for the first, -0.229 for the second.

U13C A16G A19C A28U C38U U55G A73C U77C C95G and U13C A16G C18A C35A C87U cannot be ordered by “polymerase ribozyme fitness (log ratio)” value: at most -4.2 for the first, at most -4.2 for the second.

U13C A17C G67C U77G A89C A120C and U13C A19C A20U A30G G67A C85A G88U C129G U139G U151A cannot be ordered by “polymerase ribozyme fitness (log ratio)” value: at most -4.2 for the first, at most -4.2 for the second.

U13C A20C A22C C36U A113C C118U and U13C A20U A30U C36U U56A A60U G84U C85G A119U cannot be ordered by “polymerase ribozyme fitness (log ratio)” value: at most -4.2 for the first, at most -4.2 for the second.

U13C A23U G86U U145G and U13C A24C U45G G84U U135C cannot be ordered by “polymerase ribozyme fitness (log ratio)” value: at most -4.2 for the first, at most -4.2 for the second.

First: U13C A26C A52C
Second: U13C A39G U101G A137C
The “polymerase ribozyme fitness (log ratio)” value of the first is higher: -3.55 for the first, at most -4.2 for the second.

U13C A47U G50A C54U G141U and U13C A66G C85U C95A U101G C123A U127A U144A cannot be ordered by “polymerase ribozyme fitness (log ratio)” value: at most -4.2 for the first, at most -4.2 for the second.

First: U13C C18A G48C U53A G86U C87A G100U U146A
Second: U13C C27U A37G C54U A106G U109G C123G G124A
The “polymerase ribozyme fitness (log ratio)” value of the first is lower: at most -4.2 for the first, -3.57 for the second.

U13C C36A C85U U104G G141C A150U and U13C C51G C54G C75U G83U cannot be ordered by “polymerase ribozyme fitness (log ratio)” value: at most -4.2 for the first, at most -4.2 for the second.

U13C C85G G94A C95G U135A and U13C G25A A60U C87U G92A G140A U151A cannot be ordered by “polymerase ribozyme fitness (log ratio)” value: at most -4.2 for the first, at most -4.2 for the second.

U13C G42A A73U U78A C96G U111A A120U A138G and U13C G58U U61A A73U U90G C95G cannot be ordered by “polymerase ribozyme fitness (log ratio)” value: at most -4.2 for the first, at most -4.2 for the second.

Compared with U13C G59C U61G C79U G84A C132A, U13C G94A is higher in “polymerase ribozyme fitness (log ratio)” value: -4.17 for the first, -0.431 for the second.

U13C U15A A19U C63U G74U U78C C93G C96A U101G G152C and U13C U31A C69A C116G G117A C132U cannot be ordered by “polymerase ribozyme fitness (log ratio)” value: at most -4.2 for the first, at most -4.2 for the second.

U13C U33A C54A C95G A98C C99A A150G and U13C U53A A91U A107U cannot be ordered by “polymerase ribozyme fitness (log ratio)” value: at most -4.2 for the first, at most -4.2 for the second.

U13C U53G G74C G143C and U13C U56A C93U U102G A106C G117A A119U cannot be ordered by “polymerase ribozyme fitness (log ratio)” value: at most -4.2 for the first, at most -4.2 for the second.

Compared with U13C U61G G84A A91G, U13C U90G C116A is lower in “polymerase ribozyme fitness (log ratio)” value: -3.86 for the first, -4.13 for the second.

First: U13G A16U C85U U145G
Second: U13G A16U G68A U77C A110G
The “polymerase ribozyme fitness (log ratio)” value of the first is higher: -3.16 for the first, at most -4.2 for the second.

U13G A17G U45G C85U A120G G141C and U13G A19G G25C C79A C131G U145G cannot be ordered by “polymerase ribozyme fitness (log ratio)” value: at most -4.2 for the first, at most -4.2 for the second.

U13G A19U C38U U53A A66U U90C and U13G A20C A24C C27G A60C C93A U104G C116G G126U G141U cannot be ordered by “polymerase ribozyme fitness (log ratio)” value: at most -4.2 for the first, at most -4.2 for the second.

Going from U13G A21C G48U to U13G A21G G58U G59U G71A C95G A97C U139G, the “polymerase ribozyme fitness (log ratio)” value falls from -1.33 to at most -4.2.

U13G A21U A22U A40U G70A C76G G83A G117C A120C G126A G133C and U13G A21U C32G A73U U78A C87A C118A cannot be ordered by “polymerase ribozyme fitness (log ratio)” value: at most -4.2 for the first, at most -4.2 for the second.
